Reference: the supplement of paper PMC10126150
Values marked as one replicate rest on one cluster of the flow cell; about a third of the high ones do not repeat.

Each sequence was assayed on ATP (assay: switch fluorescence ratio, 500 uM ATP over buffer (Cy3 cluster intensity, sum of 5 cycles each) (fold (ratio)); higher = stronger signal-on switching upon ATP binding; sequences stand for … in TCGTCGGCAGCGTCAGATGTGTATAAGAGACAGTTTTTTTTTTTTTTTTTTTTTTTTT…TC). Details: aptamer strand: ATP DNA aptamer (quencher-CACCTGGGGGAGTATTGCGGAGGAAGG + anchor), 100 nM annealed; ATP concentration: 500 uM; one replicate.
Summary of the method: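 Between each of five buffer/ATP cycles, the flow-cell was stripped with NaOH and re-annealed. Each cycle imaged Cy3-labelled switching-strand clusters, annealed to 100 nM quencher-labelled ATP aptamer on a modified Illumina MiSeq flow-cell, first in selection buffer and then after 15 min with 500 uM ATP at 22 °C. The fluorescence ratio is summed target-cycle over summed buffer-cycle Cy3 intensity per cluster, averaged per switch-domain sequence, with clusters outside 100-1000 RFU excluded.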
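Also: ATP exposure 15 min at 22 °C before imaging.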

| Sequence | switch fluorescence ratio |
| --- | --- |
| CTGCAGGGTT | 1.02 |
| CTGCATCACG | 1.18 |
| CTGCATGTT | 1.03 |
| CTGCCCGGCC | 1.09 |
| CTGCCGGTG | 1.02 |
| CTGCCTCCCT | 1.81 |
| CTGCCTGGGA | 1.05 |
| CTGCGATATT | 1.74 |
| CTGCGCATTG | 2.52 |
| CTGCGCCGGT | 1.04 |
| CTGCGCTACC | 3.48 |
| CTGCTCTGAG | 0.984 |
| CTGCTTACTG | 1.15 |
| CTGCTTGTGG | 1.04 |
| CTGGAAGGCC | 1 |
| CTGGACGTG | 0.952 |
| CTGGACGTGG | 0.953 |
| CTGGAGAATT | 1.09 |
| CTGGAGGAGC | 1.01 |
| CTGGATGGGT | 0.989 |
| CTGGCAGGT | 1.03 |
| CTGGCCAGAA | 1.08 |
| CTGGCGTATT | 1.02 |
| CTGGCTCAAG | 1.03 |
| CTGGGACGAG | 0.997 |
| CTGGGCAGGC | 0.803 |

| Sequence | switch fluorescence ratio |
| --- | --- |
| CTGGGCCACA | 1.05 |
| CTGGGGGTCC | 1.02 |
| CTGGGGTAAA | 0.985 |
| CTGGGTACAG | 0.994 |
| CTGGGTTCGA | 0.955 |
| CTGGGTTGA | 1.04 |
| CTGGGTTTGC | 0.961 |
| CTGGTAGTTC | 1.02 |
| CTGGTATCTA | 1.04 |
| CTGGTCCTTT | 0.991 |
| CTGGTGCCG | 1.01 |
| CTGGTTACCG | 1.07 |
| CTGGTTCAG | 0.993 |
| CTGGTTCCGA | 0.993 |
| CTGTAACTTG | 0.991 |
| CTGTACTGTA | 1.21 |
| CTGTAGACCG | 1.04 |
| CTGTAGCTCT | 1.85 |
| CTGTAGGGCA | 1.01 |
| CTGTATAACA | 0.985 |
| CTGTATAATT | 1.01 |
| CTGTATATGC | 1.75 |
| CTGTATGATT | 0.906 |
| CTGTCATATC | 1.17 |
| CTGTCCATTT | 0.972 |
| CTGTCCTCGC | 1.49 |

| Sequence | switch fluorescence ratio |
| --- | --- |
| CTGTCGAGGG | 0.968 |
| CTGTCTTTCA | 0.95 |
| CTGTGACCGC | 1.18 |
| CTGTGAGGGG | 0.967 |
| CTGTGCGACT | 1.02 |
| CTGTGCTTTT | 0.997 |
| CTGTGGCTAA | 1.03 |
| CTGTGGTGCG | 0.958 |
| CTGTGTCGGC | 1.01 |
| CTGTGTCTAT | 1 |
| CTGTTATCG | 0.966 |
| CTGTTATCGG | 0.997 |
| CTGTTATTGC | 1.04 |
| CTGTTATTT | 1.01 |
| CTGTTCGGGC | 0.956 |
| CTGTTCGGTT | 1 |
| CTGTTCGTT | 0.974 |
| CTGTTGACAC | 0.978 |
| CTGTTGAGCA | 1.07 |
| CTGTTTCCAT | 0.988 |
| CTGTTTTTCC | 1.02 |
| CTTAAGAAG | 0.975 |
| CTTAATGGAG | 1.01 |
| CTTACGTAA | 1.86 |
| CTTACGTATT | 1.15 |
| CTTACGTGGG | 0.975 |

| Sequence | switch fluorescence ratio |
| --- | --- |
| CTTAGACAGA | 0.938 |
| CTTAGTAGCT | 0.982 |
| CTTAGTCTGC | 1.01 |
| CTTATAACCT | 1.92 |
| CTTATACCCT | 1.07 |
| CTTATCACTA | 1.01 |
| CTTCAACGCC | 1.97 |
| CTTCACAGTA | 1.05 |
| CTTCAGTCTA | 1.07 |
| CTTCATGTTG | 0.994 |
| CTTCCTTGC | 2.42 |
| CTTCGAGTA | 1.01 |
| CTTCGATCGC | 1.69 |
| CTTCGATTGT | 0.977 |
| CTTCGGTGC | 1.12 |
| CTTCTCGGTC | 1.01 |
| CTTCTGTAAG | 1.04 |
| CTTCTTGTAC | 1.18 |
| CTTGAACTGG | 1 |
| CTTGAAGCTG | 0.945 |
| CTTGAAGGTC | 0.997 |
| CTTGAATCGG | 0.98 |
| CTTGAATTAA | 0.996 |
| CTTGACGATC | 1.02 |
| CTTGACGGGC | 0.972 |
| CTTGAGCGG | 0.971 |

| Sequence | switch fluorescence ratio |
| --- | --- |
| CTTGCATGGT | 1.02 |
| CTTGCCGTCC | 1.01 |
| CTTGCCTAAC | 1.96 |
| CTTGCGTCAT | 1.07 |
| CTTGCTAAAT | 0.933 |
| CTTGCTTTGG | 0.973 |
| CTTGGAAAAT | 1.04 |
| CTTGGCATG | 0.981 |
| CTTGGCGTTC | 1.04 |
| CTTGGCTATA | 1.19 |
| CTTGGGCCTC | 0.97 |
| CTTGGGTTAT | 0.98 |
| CTTGGTTCCG | 1.25 |
| CTTGGTTGCA | 1.02 |
| CTTGTAGAGG | 1.01 |
| CTTGTATTGC | 1.05 |
| CTTGTCAGAA | 0.988 |
| CTTGTCCAAA | 0.991 |
| CTTGTCCATT | 1.01 |
| CTTGTCCGCC | 1.62 |
| CTTGTGACTG | 0.906 |
| CTTGTGAGAG | 1.02 |
| CTTGTGATA | 1.04 |
| CTTGTGATGA | 0.986 |
| CTTGTTAGCA | 0.978 |
| CTTGTTATGG | 0.998 |

| Sequence | switch fluorescence ratio |
| --- | --- |
| CTTGTTTACC | 1.06 |
| CTTGTTTTTC | 1.03 |
| CTTTAACCTT | 1.59 |
| CTTTAACTGA | 1.02 |
| CTTTAAGATG | 0.97 |
| CTTTAATAGA | 1.01 |
| CTTTAGACTA | 0.944 |
| CTTTAGTGTC | 0.933 |
| CTTTATGAGG | 1.02 |
| CTTTATTATC | 0.961 |
| CTTTCACTTG | 1.04 |
| CTTTCGGCGC | 1.69 |
| CTTTCGGGCA | 0.985 |
| CTTTCGTATT | 1.02 |
| CTTTGATGAC | 0.986 |
| CTTTGGCATA | 1.15 |
| CTTTGTAGGT | 0.997 |
| CTTTGTATTA | 0.993 |
| CTTTGTTTAC | 1.06 |
| CTTTGTTTTA | 0.954 |
| CTTTTCACG | 0.985 |
| CTTTTCATTT | 1.02 |
| CTTTTCGTCC | 1.02 |
| CTTTTGATCC | 1.04 |
| CTTTTTATAG | 1.01 |
| GAAAAAGCGA | 3.36 |

| Sequence | switch fluorescence ratio |
| --- | --- |
| GAAAAGGAGT | 1.01 |
| GAAAATCAAT | 1.01 |
| GAAAATCAGG | 0.996 |
| GAAAATGTCC | 0.919 |
| GAAAATTTTC | 1.01 |
| GAAACAGATT | 1.03 |
| GAAACCGAGG | 1 |
| GAAACGTA | 1.06 |
| GAAACGTCTG | 1.05 |
| GAAACGTGGT | 1.02 |
| GAAACTTCAC | 1.15 |
| GAAAGAACGA | 0.992 |
| GAAAGACTGT | 1.02 |
| GAAAGAGCCG | 1.92 |
| GAAAGCCTGA | 1.05 |
| GAAAGGCAAC | 1.06 |
| GAAATAAGCC | 1.02 |
| GAAATACGGC | 1.17 |
| GAAATATGGA | 0.994 |
| GAAATCCTA | 1.05 |
| GAAATCGCGG | 0.968 |
| GAAATCTGAG | 1.22 |
| GAAATGAGCT | 1 |
| GAAATGAGGA | 1.06 |
| GAAATGGA | 0.998 |
| GAAATGGCTT | 0.961 |

| Sequence | switch fluorescence ratio |
| --- | --- |
| GAAATTTCCG | 0.984 |
| GAACACATTA | 1.07 |
| GAACACGAGC | 1.08 |
| GAACACTTTG | 0.991 |
| GAACAGAGGC | 1.02 |
| GAACATCGTC | 1.07 |
| GAACATTTCA | 0.997 |
| GAACCATCGT | 1.08 |
| GAACCGAACT | 1.56 |
| GAACCGGGGG | 0.983 |
| GAACGGGTTA | 1.01 |
| GAACGGTGGT | 1.02 |
| GAACGTAGA | 1 |
| GAACGTGCCC | 1.04 |
| GAACTAAA | 1 |
| GAACTGAAGC | 1.01 |
| GAACTGATTT | 1 |
| GAACTTCGGC | 1.03 |
| GAACTTTT | 0.992 |
